Results: article PMC5316855
These are yes or no findings as the source states them, for the method shown. In cells and extracts the contact can be indirect. Some entries that bind do so weakly or less than the wild type.

Sequences of proteins named here, by UniProt entry; tags and fusion partners are left off.
UniProt P11802: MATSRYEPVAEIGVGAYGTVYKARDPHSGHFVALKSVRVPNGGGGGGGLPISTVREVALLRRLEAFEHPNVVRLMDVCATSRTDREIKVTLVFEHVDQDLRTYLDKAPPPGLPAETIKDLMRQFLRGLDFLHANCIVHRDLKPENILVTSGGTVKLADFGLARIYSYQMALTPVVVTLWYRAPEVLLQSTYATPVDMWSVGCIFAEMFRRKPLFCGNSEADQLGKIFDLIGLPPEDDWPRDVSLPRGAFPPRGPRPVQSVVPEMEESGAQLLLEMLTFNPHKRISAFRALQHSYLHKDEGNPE

B1: MKK3 (protein, UniProt P46734 1-347)
chain: MESPASSQPASMPQSKGKSKRKKDLRISCMSKPPAPNPTPPRNLDSRTFITIGDRNFEVEADDLVTISELGRGAYGVVEKVRHAQSGTIMAVKRIRATVNSQEQKRLLMDLDINMRTVDCFYTVTFYGALFREGDVWICMELMDTSLDKFYRKVLDKNMTIPEDILGEIAVSIVRALEHLHSKLSVIHRDVKPSNVLINKEGHVKMCDFGISGYLVDSVAKTMDAGCKPYMAPERINPELNQKGYNVKSDVWSLGITMIEMAILRFPYESWGTPFQQLKQVVEEPSPQLPADRFSPEFVDFTAQCLRKNPAERMSYLELMEHPFFTLHKTKKTDIAAFVKEILGEDS
B2: MKK5 (protein, UniProt Q13163 1-448)
chain: MLWLALGPFPAMENQVLVIRIKIPNSGAVDWTVHSGPQLLFRDVLDVIGQVLPEATTTAFEYEDEDGDRITVRSDEEMKAMLSYYYSTVMEQQVNGQLIEPLQIFPRACKPPGERNIHGLKVNTRAGPSQHSSPAVSDSLPSNSLKKSSAELKKILANGQMNEQDIRYRDTLGHGNGGTVYKAYHVPSGKILAVKVILLDITLELQKQIMSELEILYKCDSSYIIGFYGAFFVENRISICTEFMDGGSLDVYRKMPEHVLGRIAVAVVKGLTYLWSLKILHRDVKPSNMLVNTRGQVKLCDFGVSTQLVNSIAKTYVGTNAYMAPERISGEQYGIHSDVWSLGISFMELALGRFPYPQIQKNQGSLMPLQLLQCIVDEDSPVLPVGEFSEPFVHFITQCMRKQPKERPAPEELMGHPFIVQFNDGNAAVVSMWVCRALEERRSQQGPP

Legend:
GST-CDK4 (human) = GST-CDK4 (human) (UniProt P11802); assay: pull-down; GST-affinity pull-down from lysates of transfected HEK293T cells; 1% NP-40 buffer, glutathione-conjugated beads 2 h at 4 °C, three washes, western blot; in Figure 5i the cells were treated with palbociclib
CDK4 (human) = CDK4 (human) (UniProt P11802); assay: FRET or BRET; TR-FRET high-throughput screen, 384-well; GST- and Venus-Flag-fusions co-transfected in H1299 cells, whole cell lysate, anti-GST-terbium antibody, 4 °C; both fusion orientations, triplicates, three rounds; positives by FOC, P and q values against GST-only and Venus-only controls

Binder | binding (GST-CDK4 (human)) | binding (CDK4 (human))
B1 | binds | binds
B2 | binds | binds
